According to publication PMC4598844:
These are yes or no findings as the source states them, for the method shown. In cells and extracts the contact can be indirect. Some binding calls cover weakened binding; strength is not graded here. Tags and fused reporters may be left off the sequences shown.

Protein sequences, listed by entry. Tags and fused reporters are not part of them.
UniProt Q92560: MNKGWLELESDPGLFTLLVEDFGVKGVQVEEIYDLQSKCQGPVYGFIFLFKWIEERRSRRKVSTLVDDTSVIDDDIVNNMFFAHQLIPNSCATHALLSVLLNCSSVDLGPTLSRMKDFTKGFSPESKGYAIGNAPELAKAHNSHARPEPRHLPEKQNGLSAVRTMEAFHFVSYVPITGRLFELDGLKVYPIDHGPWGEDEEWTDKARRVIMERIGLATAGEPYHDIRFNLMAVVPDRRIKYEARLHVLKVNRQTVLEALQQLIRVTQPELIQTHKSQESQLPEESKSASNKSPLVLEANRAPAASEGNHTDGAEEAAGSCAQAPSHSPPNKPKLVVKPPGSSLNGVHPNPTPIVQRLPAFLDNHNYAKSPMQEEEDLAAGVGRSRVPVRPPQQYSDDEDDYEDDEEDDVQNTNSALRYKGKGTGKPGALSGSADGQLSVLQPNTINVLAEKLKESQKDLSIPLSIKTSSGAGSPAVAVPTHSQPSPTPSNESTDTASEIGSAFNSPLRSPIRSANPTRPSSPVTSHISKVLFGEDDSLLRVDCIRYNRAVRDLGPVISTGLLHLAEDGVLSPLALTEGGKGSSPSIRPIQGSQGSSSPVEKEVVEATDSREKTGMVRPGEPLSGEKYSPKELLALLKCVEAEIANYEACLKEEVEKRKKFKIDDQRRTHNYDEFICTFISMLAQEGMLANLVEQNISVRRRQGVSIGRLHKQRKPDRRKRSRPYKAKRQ
UniProt Q13887: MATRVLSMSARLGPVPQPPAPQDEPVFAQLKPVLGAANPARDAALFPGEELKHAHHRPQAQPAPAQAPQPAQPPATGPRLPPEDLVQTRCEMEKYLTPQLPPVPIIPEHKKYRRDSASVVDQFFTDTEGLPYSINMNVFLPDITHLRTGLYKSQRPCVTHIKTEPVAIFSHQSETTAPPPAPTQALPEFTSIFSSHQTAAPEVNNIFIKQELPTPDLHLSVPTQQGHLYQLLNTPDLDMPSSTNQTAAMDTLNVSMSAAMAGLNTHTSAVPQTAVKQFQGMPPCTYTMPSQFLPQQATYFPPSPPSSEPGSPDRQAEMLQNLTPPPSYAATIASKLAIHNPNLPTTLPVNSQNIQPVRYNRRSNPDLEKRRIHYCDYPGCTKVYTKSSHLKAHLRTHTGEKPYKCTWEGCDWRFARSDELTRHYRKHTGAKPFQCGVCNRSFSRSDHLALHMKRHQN

Key:
[1] = molecular target: endogenous BAP1 (human (endogenous in MCF10A and HCC1806)) (UniProt Q92560); test: co-IP; endogenous proteins; HCC1806 cell lysates immunoprecipitated with the anti-BAP1 antibody, IgG as negative control; partners detected by WB
[2] = molecular target: KLF5-3 × Flag, full-length KLF5 (1–457) (human) (UniProt Q13887); test: co-IP; KLF5-3 × Flag and BAP1 co-transfected into HEK293FT cells; KLF5 immunoprecipitated with anti-Flag (Flag-M2 beads); partners detected by WB

binding [1]: binds
binding [2]: binds
B1: O-linked N-acetylglucosaminetransferase (OGT), endogenous (enzyme, UniProt O15294 1-1046)
chain: MASSVGNVADSTEPTKRMLSFQGLAELAHREYQAGDFEAAERHCMQLWRQEPDNTGVLLLLSSIHFQCRRLDRSAHFSTLAIKQNPLLAEAYSNLGNVYKERGQLQEAIEHYRHALRLKPDFIDGYINLAAALVAAGDMEGAVQAYVSALQYNPDLYCVRSDLGNLLKALGRLEEAKACYLKAIETQPNFAVAWSNLGCVFNAQGEIWLAIHHFEKAVTLDPNFLDAYINLGNVLKEARIFDRAVAAYLRALSLSPNHAVVHGNLACVYYEQGLIDLAIDTYRRAIELQPHFPDAYCNLANALKEKGSVAEAEDCYNTALRLCPTHADSLNNLANIKREQGNIEEAVRLYRKALEVFPEFAAAHSNLASVLQQQGKLQEALMHYKEAIRISPTFADAYSNMGNTLKEMQDVQGALQCYTRAIQINPAFADAHSNLASIHKDSGNIPEAIASYRTALKLKPDFPDAYCNLAHCLQIVCDWTDYDERMKKLVSIVADQLEKNRLPSVHPHHSMLYPLSHGFRKAIAERHGNLCLDKINVLHKPPYEHPKDLKLSDGRLRVGYVSSDFGNHPTSHLMQSIPGMHNPDKFEVFCYALSPDDGTNFRVKVMAEANHFIDLSQIPCNGKAADRIHQDGIHILVNMNGYTKGARNELFALRPAPIQAMWLGYPGTSGALFMDYIITDQETSPAEVAEQYSEKLAYMPHTFFIGDHANMFPHLKKKAVIDFKSNGHIYDNRIVLNGIDLKAFLDSLPDVKIVKMKCPDGGDNADSSNTALNMPVIPMNTIAEAVIEMINRGQIQITINGFSISNGLATTQINNKAATGEEVPRTIIVTTRSQYGLPEDAIVYCNFNQLYKIDPSTLQMWANILKRVPNSVLWLLRFPAVGEPNIQQYAQNMGLPQNRIIFSPVAPKEEHVRRGQLADVCLDTPLCNGHTTGMDVLWAGTPMVTMPGETLASRVAASQLTCLGCLELIAKNRQEYEDIAVKLGTDLEYLKKVRGKVWKQRISSPLFNTKQYTMELERLYLQMWEHYAAGNKPDHMIKPVEVTESA
